# The list shows a part of the results.
# Experiments:
# Assay in all cases: glycan array binding signal (z-score within array); higher = stronger binding
# Conditions in all cases: glycan notation: IUPAC condensed, linker removed
# [1] = biological target: Neu5Ac(a2-3)GalNAc(b1-4)GlcNAc
# Procedure, shortened: (§1)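 The binding signal is a Z-score computed within each array. Data were drawn from 3228 arrays in the Consortium for Functional Glycomics database, restricted to those with a known protein sequence. Scores were averaged over arrays of the same protein sequence at different concentrations or buffers, and over linkers, and negative values can be taken as non-binding.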
# [2] = biological target: Neu5Ac(a2-3)[GalNAc(b1-4)]Gal(b1-4)Glc
# Procedure, shortened: as §1
# [3] = biological target: Neu5Ac(a2-3)[GalNAc(b1-4)]Gal(b1-4)GlcNAc
# Procedure, shortened: as §1
# [4] = biological target: Neu5Ac(a2-3)[Neu5Ac(a2-6)]GalNAc
# Procedure, shortened: as §1
# [5] = biological target: Neu5Ac(a2-6)Gal(b1-4)GlcNAc
# Procedure, shortened: as §1
# [6] = biological target: Neu5Ac(a2-6)Gal(b1-4)GlcNAc(b1-2)Man(a1-3)[Neu5Ac(a2-6)Gal(b1-4)GlcNAc(b1-2)Man(a1-6)]Man(b1-4)GlcNAc(b1-4)GlcNAc
# Procedure, shortened: as §1
# [7] = biological target: Neu5Ac(a2-6)Gal(b1-4)GlcNAc(b1-3)Gal(b1-4)GlcNAc
# Procedure, shortened: as §1
# [8] = biological target: Neu5Ac(a2-6)Gal(b1-4)GlcNAc(b1-3)Gal(b1-4)[Fuc(a1-3)]GlcNAc(b1-3)Gal(b1-4)[Fuc(a1-3)]GlcNAc
# Procedure, shortened: as §1
# [9] = biological target: Neu5Ac(a2-6)Gal(b1-4)GlcNAc6S
# Procedure, shortened: as §1
# Neu5Ac(a2-6)GalNAc = biological target: Neu5Ac(a2-6)GalNAc
# Procedure, shortened: as §1
# [10] = biological target: Neu5Ac(a2-6)GalNAc(b1-4)GlcNAc
# Procedure, shortened: as §1
# Neu5Ac(a2-8)Neu5Ac = biological target: Neu5Ac(a2-8)Neu5Ac
# Procedure, shortened: as §1
# [11] = biological target: Neu5Ac(a2-8)Neu5Ac(a2-3)Gal(b1-4)Glc
# Procedure, shortened: as §1
# [12] = biological target: Neu5Ac(a2-8)Neu5Ac(a2-3)[GalNAc(b1-4)]Gal(b1-4)Glc
# Procedure, shortened: as §1
# [13] = biological target: Neu5Ac(a2-8)Neu5Ac(a2-8)Neu5Ac
# Procedure, shortened: as §1
# [14] = biological target: Neu5Ac(a2-8)Neu5Ac(a2-8)Neu5Ac(a2-3)Gal(b1-4)Glc
# Procedure, shortened: as §1
# [15] = biological target: Neu5Ac(a2-8)Neu5Ac(a2-8)Neu5Ac(a2-3)[GalNAc(b1-4)]Gal(b1-4)Glc
# Procedure, shortened: as §1
# [16] = biological target: Neu5Ac(a2-8)Neu5Ac(a2-8)Neu5Ac(a2-8)Neu5Ac(a2-3)[GalNAc(b1-4)]Gal(b1-4)Glc
# Procedure, shortened: as §1
# [17] = biological target: Neu5Ac9Ac(a2-6)Gal(b1-4)GlcNAc
# Procedure, shortened: as §1
# [18] = biological target: Neu5Gc(a2-3)Gal(b1-3)GlcNAc
# Procedure, shortened: as §1
# [19] = biological target: Neu5Gc(a2-3)Gal(b1-3)[Fuc(a1-4)]GlcNAc
# Procedure, shortened: as §1
# Neu5Gc(a2-3)Gal(b1-4)Glc = biological target: Neu5Gc(a2-3)Gal(b1-4)Glc
# Procedure, shortened: as §1
# [20] = biological target: Neu5Gc(a2-3)Gal(b1-4)GlcNAc
# Procedure, shortened: as §1
# [21] = biological target: Neu5Gc(a2-3)Gal(b1-4)[Fuc(a1-4)]GlcNAc
# Procedure, shortened: as §1
# [22] = biological target: Neu5Gc(a2-6)Gal(b1-4)GlcNAc
# Procedure, shortened: as §1
# Neu5Gc(a2-6)GalNAc = biological target: Neu5Gc(a2-6)GalNAc
# Procedure, shortened: as §1
binder,measurement,setting,value
"X56-1 (Clostridium perfringens), P26831 (protein) MGSSHHHHHHSSGLVPRGSHMASDPNRIIATYISNRQDAPTGNPDNIFDNNASTELVYKNPNRIDVGTYVGVKYSNPITLNNVEFLMGANSNPNDTMQKAKIQYTVDGREWIDLEEGVEYTMPGAIKVENLDLKVRGVRLIATEARENTWLGVRDINVNKKEDSNSGVEF",glycan array binding signal (z-score),[1],-0.259
same,glycan array binding signal (z-score),[2],-0.338
same,glycan array binding signal (z-score),[3],-0.387
same,glycan array binding signal (z-score),[4],-0.193
same,glycan array binding signal (z-score),[5],-0.238
same,glycan array binding signal (z-score),[6],-0.264
same,glycan array binding signal (z-score),[7],-0.318
same,glycan array binding signal (z-score),[8],-0.436
same,glycan array binding signal (z-score),[9],-0.039
same,glycan array binding signal (z-score),Neu5Ac(a2-6)GalNAc,-0.26
same,glycan array binding signal (z-score),[10],0.236
same,glycan array binding signal (z-score),Neu5Ac(a2-8)Neu5Ac,0.047
same,glycan array binding signal (z-score),[11],0.954
same,glycan array binding signal (z-score),[12],0.045
same,glycan array binding signal (z-score),[13],-0.066
same,glycan array binding signal (z-score),[14],-0.334
same,glycan array binding signal (z-score),[15],-0.067
same,glycan array binding signal (z-score),[16],-0.219
same,glycan array binding signal (z-score),[17],-0.18
same,glycan array binding signal (z-score),[18],-0.144
same,glycan array binding signal (z-score),[19],-0.273
same,glycan array binding signal (z-score),Neu5Gc(a2-3)Gal(b1-4)Glc,-0.411
same,glycan array binding signal (z-score),[20],-0.119
same,glycan array binding signal (z-score),[21],0.014
same,glycan array binding signal (z-score),[22],-0.154
same,glycan array binding signal (z-score),Neu5Gc(a2-6)GalNAc,-0.354
